{"source": "the antibiotic and cytotoxicity screens of Wong et al. (2023)", "note": "The list shows a part of the results.", "data": [{"tested_on": "HSkMC (human skeletal muscle cells)", "test": "cytotoxicity call (relative viability < 0.9)", "settings": "10 µM", "values": [{"smiles": "CCC[C@@H](O)C#Cc1cnc2c(c1)C(=O)N([C@H](C)CO)C[C@H](C)[C@H](CN(C)S(=O)(=O)c1cn(C)cn1)O2", "cytotoxicity call": "inactive"}, {"smiles": "C[C@H]1CN([C@@H](C)CO)S(=O)(=O)c2ccc(/C=C/c3ccccc3)cc2O[C@H]1CN(C)C(=O)CN1CCOCC1", "cytotoxicity call": "inactive"}, {"smiles": "Cc1ccc(S(=O)(=O)Nc2ccc3c(c2)CC(=O)N([C@@H](C)CO)C[C@@H](C)[C@H](CN(C)S(=O)(=O)c2cccs2)O3)cc1", "cytotoxicity call": "inactive"}, {"smiles": "C[C@@H]1CCCCO[C@H](CN(C)C)[C@H](C)CN([C@@H](C)CO)C(=O)c2cc(NS(=O)(=O)c3cn(C)cn3)ccc2O1", "cytotoxicity call": "inactive"}, {"smiles": "CN1C(=O)c2cc(NC(=O)C3CCC3)ccc2OC[C@@H]2O[C@H](CC(=O)NCCc3ccncc3)CC[C@@H]21", "cytotoxicity call": "inactive"}, {"smiles": "CO[C@H]1CN(C)C(=O)c2cc(NC(=O)C3CCOCC3)ccc2OC[C@H](C)N(Cc2cccnc2)C[C@@H]1C", "cytotoxicity call": "inactive"}, {"smiles": "C[C@@H]1CCCCO[C@H](CN(C)S(C)(=O)=O)[C@@H](C)CN([C@H](C)CO)C(=O)c2cc(NC(=O)Nc3cccc4ccccc34)ccc2O1", "cytotoxicity call": "inactive"}, {"smiles": "Cc1ccc(-c2ccc3c(c2)O[C@H](CN(C)C(=O)NC(C)C)[C@H](C)CN([C@H](C)CO)S3(=O)=O)cc1", "cytotoxicity call": "inactive"}, {"smiles": "Cc1ccc(S[C@]2(C(=O)NCC(C)C)CC(=O)N(Cc3ccccc3Cl)[C@@H]2c2ccc(CO)cc2I)cc1", "cytotoxicity call": "inactive"}, {"smiles": "CC=Cc1ccc2n(c1=O)C[C@@H]1[C@@H](CO)[C@H](C(=O)NCCc3cn(C)cn3)N(C(=O)C3CC3)[C@H]21", "cytotoxicity call": "inactive"}, {"smiles": "CC1(C(=O)O)CCC2(C)CCC3(C)C(=CC(=O)C4C5(C)CCC(O)C(C)(C)C5CCC43C)C2C1", "note": "(stereo unspecified)", "cytotoxicity call": "inactive"}, {"smiles": "C[C@H]1CN([C@@H](C)CO)C(=O)Cc2cc(NC(=O)Cc3ccccc3)ccc2O[C@H]1CN(C)C(=O)Nc1ccc(C(F)(F)F)cc1", "cytotoxicity call": "inactive"}, {"smiles": "CC1=C(C(=O)O)N2C(=O)[C@@H](NC(=O)[C@H](N)c3ccccc3)[C@H]2SC1", "cytotoxicity call": "inactive"}, {"smiles": "C[C@@H]1CCCCO[C@@H](CN(C)Cc2ccc(Cl)c(Cl)c2)[C@H](C)CN([C@@H](C)CO)C(=O)c2cc(NC(=O)NC3CCCCC3)ccc2O1", "cytotoxicity call": "inactive"}, {"smiles": "C[C@H]1CN([C@@H](C)CO)C(=O)c2cccc(NS(=O)(=O)c3cn(C)cn3)c2O[C@H]1CN(C)S(=O)(=O)c1cccs1", "cytotoxicity call": "inactive"}, {"smiles": "Nc1nc(=O)c2nc(Br)n([C@H]3O[C@H]4CO[PH](O)(O)O[C@@H]4[C@@H]3O)c2[nH]1", "cytotoxicity call": "inactive"}, {"smiles": "C[C@@H]1CCCCO[C@H](CN(C)CC2CCCCC2)[C@H](C)CN([C@@H](C)CO)C(=O)c2cc(NC(=O)c3ccccc3)ccc2O1", "cytotoxicity call": "inactive"}, {"smiles": "O=C(C[C@H]1CC[C@H](NC(=O)CN2CCOCC2)[C@H](CO)O1)NCCc1ccccc1", "cytotoxicity call": "inactive"}, {"smiles": "C[C@H]1CCCCO[C@@H](CN(C)S(=O)(=O)c2ccc(F)cc2)[C@@H](C)CN([C@@H](C)CO)C(=O)c2cc(NS(=O)(=O)c3cn(C)cn3)ccc2O1", "cytotoxicity call": "inactive"}, {"smiles": "Cc1noc(C)c1NC(=O)N(C)C[C@H]1Oc2ncc(C#CCC(C)C)cc2C(=O)N([C@H](C)CO)C[C@@H]1C", "cytotoxicity call": "inactive"}, {"smiles": "C[C@H]1CCCCO[C@H](CN(C)Cc2ccc(C(=O)O)cc2)[C@@H](C)CN([C@@H](C)CO)C(=O)c2cc(NC(=O)Nc3cccc4ccccc34)ccc2O1", "cytotoxicity call": "inactive"}, {"smiles": "Cn1c(Cl)cnc1CO", "cytotoxicity call": "inactive"}, {"smiles": "C[C@H]1CN([C@@H](C)CO)C(=O)Cc2cc(NC(=O)CCC(F)(F)F)ccc2O[C@H]1CN(C)S(=O)(=O)c1cccs1", "cytotoxicity call": "inactive"}, {"smiles": "Cc1ccc(S(=O)(=O)C[C@H](C)N2CCOCC2)c(S(=O)(=O)C[C@@H](C)N2CCOCC2)c1", "cytotoxicity call": "inactive"}, {"smiles": "NCCNC(=O)c1ccc(Cl)cn1", "cytotoxicity call": "inactive"}, {"smiles": "C[C@H](CO)N1C[C@H](C)[C@@H](CN(C)Cc2ccncc2)Oc2ccc(NS(=O)(=O)c3ccccc3)cc2CC1=O", "cytotoxicity call": "inactive"}, {"smiles": "C[C@@H]1CCCCO[C@@H](CN(C)Cc2ccccc2)[C@@H](C)CN([C@@H](C)CO)C(=O)c2cc(NS(=O)(=O)c3ccc(F)cc3)ccc2O1", "cytotoxicity call": "inactive"}, {"smiles": "CCS(=O)(=O)Nc1ccc2c(c1)C(=O)N(C)C[C@@H](OC)[C@@H](C)CN(Cc1nccs1)[C@H](C)CO2", "cytotoxicity call": "inactive"}, {"smiles": "CC(C)(O)c1ccccc1CCC(SCC1(CC(=O)[O-])CC1)c1cccc(C=Cc2ccc3ccc(Cl)cc3n2)c1.[Na+]", "note": "(stereo unspecified)", "cytotoxicity call": "inactive"}, {"smiles": "OC[C@H]1O[C@@H](n2ncc3c(O)ncnc32)[C@H](O)[C@@H]1O", "cytotoxicity call": "inactive"}, {"smiles": "CC(C)NC(=O)N(C)C[C@@H]1Oc2ccc(NC(=O)NC3CCCCC3)cc2CC(=O)N([C@H](C)CO)C[C@@H]1C", "cytotoxicity call": "inactive"}]}]}
